The experiment addresses protein A sepharose (Pierce) (UniProt P38507). Description: incubation with protein A sepharose, SDS-PAGE and Coomassie.

B1: recombinant hIL6 (ligand)
chain: not shown
Take B1: the binding result is “no binding”.

The record behind these values is patent publication US20100330617A1 (Sanofi, published 2010).
